The supplement of paper PMC4604168 (melanoma cell lines)
Some of the results follow. Single values are uncertain, as repeats are few or missing.

How the values were obtained:
Test in all cases: cell count relative to DMSO control; melanoma cells; higher = more viable cells
Settings in all cases: library dose: low library concentration; 72 h
MZ2-MEL = tested on: MZ2-MEL
MeWo = tested on: MeWo
RPMI7951 = tested on: RPMI7951
RVH-421 = tested on: RVH-421
SkMel28 = tested on: SkMel28
SkMel2 = tested on: SkMel2
SkMel30 = tested on: SkMel30
UACC62 = tested on: UACC62
WM115 = tested on: WM115
WM1716 = tested on: WM1716
WM1745 = tested on: WM1745
WM3526 = tested on: WM3526
WM3619 = tested on: WM3619
WM451Lu = tested on: WM451Lu
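Further: cell number obtained by counting DAPI-stained nuclei in high-throughput microscope images with image analysis software, screen run in 1,536-well plates.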

Row | Compound | cell count (MZ2-MEL) [%] | cell count (MeWo) [%] | cell count (RPMI7951) [%] | cell count (RVH-421) [%] | cell count (SkMel28) [%] | cell count (SkMel2) [%] | cell count (SkMel30) [%] | cell count (UACC62) [%] | cell count (WM115) [%] | cell count (WM1716) [%] | cell count (WM1745) [%] | cell count (WM3526) [%] | cell count (WM3619) [%] | cell count (WM451Lu) [%]
1 | NC1(c2ccc(-c3nc4ccn5c(=O)[nH]nc5c4cc3-c3ccccc3)cc2)CCC1 + C=CCNC1=C2C[C@@H](C)C[C@H](OC)[C@H](O)[C@@H](C)/C=C(\C)[C@H](OC(N)=O)[C@@H](OC)/C=C\C=C(/C)C(=O)NC(=CC1=O)C2=O [Tanespimycin] (first compound 0.4 µM, partner dose 0.002 µM) | 91.7 | 88.9 | 89.3 | 73.6 | 77.2 | 75.6 | 96.9 | 72.4 | 90.9 | 97.6 | 92.6 | 65.9 | 92.7 | 95.8
2 | CS(=O)(=O)c1ccc(C(=O)Nc2ccc(Cl)c(-c3ccccn3)c2)c(Cl)c1 [vismodegib] + C#Cc1cccc(Nc2ncnc3cc(OCCOC)c(OCCOC)cc23)c1 [erlotinib] (first compound 1 µM, partner dose 0.8 µM) | 95.1 | 83.7 | 92.6 | 89.3 | 109 | 101 | 101 | 90.2 | 105 | 96.9 | 85.8 | 91.6 | 118 | 93.6
3 | CS(=O)(=O)c1ccc(C(=O)Nc2ccc(Cl)c(-c3ccccn3)c2)c(Cl)c1 [vismodegib] + CNC(=O)c1cc(Oc2ccc(NC(=O)Nc3ccc(Cl)c(C(F)(F)F)c3)cc2)ccn1 [sorafenib] (first compound 1 µM, partner dose 0.4 µM) | 87 | 99.3 | 91.3 | 119 | 99.7 | 103 | 102 | 110 | 87.8 | 86.1 | 83.2 | 79.8 | 111 | 122
4 | C=C(c1ccc(C(=O)O)cc1)c1cc2c(cc1C)C(C)(C)CCC2(C)C [Bexarotene] + Cn1nnc2c(C(N)=O)ncn2c1=O [temozolomide] (first compound 2 µM, partner dose 2 µM) | 98.9 | 80.5 | 68.2 | 82.8 | 49.5 | 83 | 98 | 71.4 | 86.8 | 65 | 89.2 | 79.1 | 63.6 | 96.4
5 | C=C(c1ccc(C(=O)O)cc1)c1cc2c(cc1C)C(C)(C)CCC2(C)C [Bexarotene] + OCc1c[nH]c2ccccc12 [Indole-3-carbinol] (first compound 2 µM, partner dose 0.8 µM) | 88.9 | 83 | 74.7 | 89.8 | 80.4 | 90.3 | 108 | 81.5 | 99.3 | 76.1 | 107 | 78.5 | 94.3 | 96.1
6 | NC1(c2ccc(-c3nc4ccn5c(=O)[nH]nc5c4cc3-c3ccccc3)cc2)CCC1 + C=C(c1ccc(C(=O)O)cc1)c1cc2c(cc1C)C(C)(C)CCC2(C)C [Bexarotene] (first compound 0.4 µM, partner dose 2 µM) | 91.4 | 66.5 | 67.3 | 68.4 | 72.4 | 72.5 | 76.1 | 74.4 | 76.4 | 74.4 | 91.9 | 66.3 | 98.6 | 76.5
7 | NC1(c2ccc(-c3nc4ccn5c(=O)[nH]nc5c4cc3-c3ccccc3)cc2)CCC1 + O=C(O)c1ccc2c(c1)nc(Nc1cccc(Cl)c1)c1ccncc12 [CX4945] (first compound 0.4 µM, partner dose 0.4 µM) | 93.2 | 76.1 | 87.7 | 66.3 | 93.3 | 74.5 | 70.7 | 75.4 | 72.5 | 98.4 | 92.5 | 57.8 | 80.3 | 103
8 | CCCS(=O)(=O)Nc1ccc(F)c(C(=O)c2c[nH]c3ncc(Cl)cc23)c1F + COc1ccc(Cl)c(Nc2nc3ccccc3nc2NS(=O)(=O)c2cccc(NC(=O)C(C)(C)N)c2)c1 [XL147] (first compound 0.08 µM, partner dose 0.8 µM) | 83.4 | 89.4 | 118 | 88.3 | 68.8 | 88.6 | 92.9 | 64 | 87.5 | 109 | 90.8 | 63.8 | 71.4 | 97.1
9 | CS(=O)(=O)c1ccc(C(=O)Nc2ccc(Cl)c(-c3ccccn3)c2)c(Cl)c1 [vismodegib] + O=C(O)c1ccc2c(c1)nc(Nc1cccc(Cl)c1)c1ccncc12 [CX4945] (first compound 1 µM, partner dose 0.4 µM) | 91.9 | 101 | 112 | 122 | 118 | 99.8 | 104 | 111 | 110 | 99.8 | 100 | 105 | 95.2 | 102
10 | CN(c1ncccc1CNc1nc(Nc2ccc3c(c2)CC(=O)N3)ncc1C(F)(F)F)S(C)(=O)=O + CS(=O)(=O)CCNCc1ccc(-c2ccc3ncnc(Nc4ccc(OCc5cccc(F)c5)c(Cl)c4)c3c2)o1 [lapatinib] (first compound 0.08 µM, partner dose 0.8 µM) | 83.3 | 90.7 | 69.5 | 101 | 82.4 | 90.2 | 82 | 103 | 76.8 | 85.9 | 67.8 | 109 | 108 | 71.9
11 | C=C(c1ccc(C(=O)O)cc1)c1cc2c(cc1C)C(C)(C)CCC2(C)C [Bexarotene] + Nc1cccc2c1CN(C1CCC(=O)NC1=O)C2=O [lenalidomide] (first compound 2 µM, partner dose 1 µM) | 88.8 | 87 | 76.7 | 98.1 | 84.9 | 91.2 | 104 | 104 | 102 | 88.2 | 89.5 | 99.1 | 119 | 81.5
12 | CS(=O)(=O)c1ccc(C(=O)Nc2ccc(Cl)c(-c3ccccn3)c2)c(Cl)c1 [vismodegib] + CN(c1ncccc1CNc1nc(Nc2ccc3c(c2)CC(=O)N3)ncc1C(F)(F)F)S(C)(=O)=O [PF562271] (first compound 1 µM, partner dose 0.08 µM) | 101 | 102 | 88.4 | 93.4 | 97.1 | 92.8 | 114 | 77.1 | 80.1 | 90.2 | 84.7 | 104 | 103 | 69.3
13 | CS(=O)(=O)c1ccc(C(=O)Nc2ccc(Cl)c(-c3ccccn3)c2)c(Cl)c1 [vismodegib] + CS(=O)(=O)CCNCc1ccc(-c2ccc3ncnc(Nc4ccc(OCc5cccc(F)c5)c(Cl)c4)c3c2)o1 [lapatinib] (first compound 1 µM, partner dose 0.8 µM) | 94.6 | 104 | 86.8 | 95.5 | 112 | 98.4 | 79.8 | 101 | 105 | 116 | 96.6 | 87.3 | 93.5 | 102
14 | NC1(c2ccc(-c3nc4ccn5c(=O)[nH]nc5c4cc3-c3ccccc3)cc2)CCC1 + COCC[n+]1c2c(n(Cc3cnccn3)c1C)C(=O)c1ccccc1C2=O [YM155] (first compound 0.4 µM, partner dose 0.0004 µM) | 48.9 | 76 | 94.2 | 81.8 | 65.3 | 71.9 | 68.4 | 77.5 | 77.9 | 73.2 | 84.9 | 63 | 93.3 | 60
15 | CS(=O)(=O)c1ccc(C(=O)Nc2ccc(Cl)c(-c3ccccn3)c2)c(Cl)c1 [vismodegib] + Cc1nc(Nc2ncc(C(=O)Nc3c(C)cccc3Cl)s2)cc(N2CCN(CCO)CC2)n1 [dasatanib] (first compound 1 µM, partner dose 0.004 µM) | 74.8 | 80.7 | 70.8 | 82.5 | 86.9 | 95.2 | 88.8 | 96 | 80.1 | 90.8 | 76 | 98 | 88.4 | 70.2
16 | CCCS(=O)(=O)Nc1ccc(F)c(C(=O)c2c[nH]c3ncc(Cl)cc23)c1F + CC(=O)c1c(C)c2cnc(Nc3ccc(N4CCNCC4)cn3)nc2n(C2CCCC2)c1=O [palbociclib] (first compound 0.08 µM, partner dose 0.04 µM) | 69.1 | 77.4 | 80.2 | 70.3 | 61.4 | 79.1 | 66.5 | 45 | 78 | 84.8 | 91.5 | 54.9 | 57.7 | 75
17 | NC1(c2ccc(-c3nc4ccn5c(=O)[nH]nc5c4cc3-c3ccccc3)cc2)CCC1 + Clc1ccc(Nc2nnc(Cc3ccncc3)c3ccccc23)cc1 [vatalanib] (first compound 0.4 µM, partner dose 2 µM) | 89.8 | 64.6 | 91.6 | 79.5 | 77.6 | 78 | 61.9 | 61.7 | 65.5 | 89.6 | 84.3 | 65.2 | 68.8 | 77.6
18 | CN(c1ncccc1CNc1nc(Nc2ccc3c(c2)CC(=O)N3)ncc1C(F)(F)F)S(C)(=O)=O + Cn1c(=O)n(-c2ccc(C(C)(C)C#N)cc2)c2c3cc(-c4cnc5ccccc5c4)ccc3ncc21 [NVP-BEZ235] (first compound 0.08 µM, partner dose 0.004 µM) | 94.6 | 88.9 | 65.9 | 105 | 70.1 | 77.1 | 85.2 | 71.5 | 76.5 | 98.1 | 84.1 | 95.1 | 88.4 | 65.9
19 | CCCS(=O)(=O)Nc1ccc(F)c(C(=O)c2c[nH]c3ncc(Cl)cc23)c1F + Cc1nc(Nc2ncc(C(=O)Nc3c(C)cccc3Cl)s2)cc(N2CCN(CCO)CC2)n1 [dasatanib] (first compound 0.08 µM, partner dose 0.004 µM) | 70.4 | 102 | 75 | 78.8 | 74.1 | 88.3 | 103 | 73.4 | 88.3 | 86.5 | 68.9 | 74.8 | 81.3 | 96.5
